# The supplement of paper PMC4466236
# The full ranking holds about 33,000 sequences; the median of “E-score (dimensionless, -0.5 to 0.5)” is about -0.058, and the highest 2% start at about 0.35. Some of the results follow.
# Tested on: MvaT
# Experiment: PBM 8-mer E-score (mean of HK and ME arrays) (E-score (dimensionless, -0.5 to 0.5)); higher = stronger relative binding preference; most listed sequences are background and not binding sites
# How it was run: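 Reported values are rank-based E-scores, taken as the mean of two universal arrays and parsed with a custom script. Each 8-mer score falls between -0.5 and 0.5. The arrays, ME and HK, were double-stranded 60-mers with a constant 25-mer primer region and a variable 35-mer region covering all 8-mers. They were probed, by an earlier protocol, with full-length P. aeruginosa MvaT carrying an N-terminal glutathione S-transferase fusion.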
row,Sequence,PBM 8-mer E-score
1,GCTAGCTA,-0.232
2,ATCTCGTA,-0.0845
3,ACGCAGAG,-0.286
4,GGTTAAGA,-0.0299
5,AGTGTGGG,0.00874
6,GGCGATTA,-0.00168
7,AGCAAAGG,-0.128
8,AATGCTAA,0.219
9,CAGGCGAC,-0.0385
10,ATTTCGAA,0.268
11,CTTGTCCC,-0.21
12,GAAACTCC,-0.166
13,CTTTTATC,0.137
14,TCAGATCA,-0.146
15,GTACGAGA,-0.126
16,ACATGACC,0.0083
17,AGTAAGAC,0.0824
18,GGTGAAAC,-0.0465
19,CATCCACA,0.00998
20,CGACCATC,-0.206
21,AACTTGAG,0.045
22,ATGTGCTA,0.0602
23,GTCCCACA,-0.0746
24,AGTAACTC,0.0799
25,ATCGAAGG,-0.146

row,Sequence,PBM 8-mer E-score
1,GTGTGAAA,-0.0522
2,GTAGTACA,0.0678
3,ATCACGAT,-0.0508
4,ACGCTAAG,-0.0688
5,GGACAGGA,-0.166
6,GGCAGATA,0.0348
7,CCCACCGA,-0.171
8,TAATCTGA,0.177
9,ACGCTTTA,0.116
10,CGATTTCC,0.048
11,CAGGTCAC,-0.224
12,CTATCTGA,-0.00521
13,GCCGTCGC,-0.208
14,CCAATGGC,-0.204
15,AGTCAGCC,-0.175
16,GATAAAAC,0.275
17,TACCCGGA,-0.141
18,CCGAGTCA,-0.078
19,ACTACGGA,0.046
20,AACACTGC,0.116
21,ATTCAAGC,-0.0682
22,TCTGGTCA,-0.151
23,CAATCATA,0.162
24,TAAGGGCA,0.0358
25,ACCAGGGC,-0.31

row,Sequence,PBM 8-mer E-score
1,ATCGGTAG,-0.0749
2,AGGAGTGG,-0.168
3,CACTAGGC,-0.2
4,CACCAAAA,0.0428
5,ATAAAGAA,0.264
6,GGAAGACA,-0.0366
7,AATACCAT,0.235
8,TAGTCATA,0.175
9,AAAAGGTA,0.193
10,ACTCCGAA,-0.0019
11,ACTATTAG,0.26
12,CATGTAAA,0.257
13,CTGATCTA,0.0355
14,AGCAGCGG,-0.196
15,ACCGCTCT,-0.144
16,CTACCCCA,-0.0266
17,GAGACCGC,-0.34
18,CGCTTGTC,-0.22
19,GTGCTGTA,0.0346
20,AATCGTAA,0.236
21,CCAGCATC,-0.221
22,CATGAATC,0.0498
23,AAATTGCC,0.23
24,CCGCGACC,-0.253
25,GAGGCTCC,-0.316

row,Sequence,PBM 8-mer E-score
1,TAAAGTTA,0.315
2,AGCTAGAA,0.0178
3,AGCTGAGA,-0.0354
4,GGACGACC,-0.324
5,CAGCAACG,-0.128
6,AAACGTTC,-0.145
7,ATGGCTCC,-0.134
8,CCCGGTCG,-0.255
9,TCCCCCCA,-0.235
10,CAAATGAA,0.151
11,AAAACCCC,-0.261
12,TCTACACA,-0.00588
13,AATCCTAG,-0.0881
14,GCCTTGAA,-0.137
15,GCGGTTTA,0.0736
16,ATGCGATA,0.127
17,ATGCGAGG,-0.0953
18,CCCGCAGA,-0.249
19,CAAGGGCC,-0.256
20,ATAGTTTG,0.267
21,AAGTTCCA,0.2
22,AGCCACGC,-0.309
23,GAAGACCC,-0.229
24,TAAATGGA,0.214
25,CCCAAATA,0.14

row,Sequence,PBM 8-mer E-score
1,CTAATAGC,0.0517
2,AAATAGGC,0.11
3,ATGTCAAG,0.0552
4,AGTATGGG,0.0333
5,GGAGCCTA,-0.266
6,CATAAGAA,0.126
7,GAGGCGCA,-0.21
8,AAGTGCGC,0.139
9,GTATAAAC,0.316
10,ATGAAAGG,-0.0354
11,GCGAACCA,-0.0933
12,CCACGCAG,-0.247
13,ACCATACT,0.163
14,CGACTCCC,-0.208
15,AATTATAA,0.468
16,TACCTTGA,0.00172
17,ATACCGAT,0.156
18,TAAGAAGA,0.0421
19,AAAGATGC,0.0129
20,CCTACGGC,-0.233
21,CACGACTG,-0.114
22,TCGCGGCA,-0.137
23,CATTAATC,0.341
24,GGAGGTCA,-0.31
25,AGGACCAT,-0.205

row,Sequence,PBM 8-mer E-score
1,GATCATAA,0.189
2,AAACATAC,0.284
3,AGTCCTAC,-0.0839
4,ATGCGATC,-0.0626
5,TACGGTCA,0.0766
6,AGGTTGCG,-0.0949
7,CGAGCTAC,-0.199
8,ACCGTTGC,-0.0839
9,GAACCTGA,-0.0412
10,CAGCTTAA,-0.0172
11,CATCGCAA,0.0845
12,GGACAACA,0.149
13,ACCTTCGA,-0.237
14,ACACGACT,-0.0741
15,TGACAAAA,0.265
16,TGCGCCCA,-0.288
17,TCACGGGA,-0.111
18,AGATACAT,0.237
19,GGAAAGTA,0.072
20,AACTGTGA,0.168
21,CCCGTCAG,-0.267
22,ACCCCTCA,-0.187
23,GCAAGCGC,-0.166
24,AAATGAGT,0.125
25,ACGAAAGT,0.13

row,Sequence,PBM 8-mer E-score
1,GGACACCC,-0.279
2,AAGCGAGC,-0.0148
3,TGGACCCA,-0.295
4,AACCAATC,0.132
5,ATACATAG,0.294
6,CATGACAG,-0.212
7,ATAAGAGA,0.177
8,GTGAAATA,0.262
9,AACTTCAA,0.345
10,ATAAAACC,0.246
11,CTACGCGA,-0.0603
12,CGGGTGTC,-0.123
13,CAGCTTTA,0.13
14,AGCGCCTA,-0.16
15,AAGACTCC,-0.0249
16,ACTAGCCA,-0.0869
17,CGATCGCC,-0.0902
18,CCAGCTAC,-0.209
19,GAAGTACA,0.171
20,AAAGGAGC,-0.27
21,CACGCTAC,-0.025
22,TAAGCCCA,0.0568
